Test results from PubChem BioAssay AID624255 (Broad Institute, 2012).
Out of some 77,000 compounds screened, about 4,600 (6%) were called active. This list was built around the results that the source calls inconclusive (neither active nor inactive); the mix of calls is not that of the screen.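 The calls were made as follows: active = mean inhibition above about 93%, with at least 55% of replicates each passing it (limit read from the data, passing the limit was not always enough); inconclusive = only one of those two conditions holds; inactive = neither condition holds.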

test: T. cruzi intracellular proliferation inhibitors, primary screen, cell-based, beta-gal Tulahuen parasites, NIH3T3 host, luminescence (AID 624255); conditions: T. cruzi beta-gal in NIH3T3, GalScreen luminescence, 90 h; at 8.34 µM; active compounds read high

inhibition, inactive:
C[C@H]1CCCCO[C@@H](CN(C)C(=O)c2ccccc2)[C@@H](C)CN([C@@H](C)CO)C(=O)c2cc(NC(=O)c3ccncc3)ccc2O1 19.9%
COc1ccc(C#Cc2ccc([C@H]3[C@H](CO)N4CCCCN(C(=O)Nc5ccc(F)cc5)C[C@@H]34)cc2)cc1 62.7%
C[C@@H]1CN([C@H](C)CO)C(=O)c2cc(NC(=O)Nc3ccc(F)cc3)ccc2O[C@@H]1CN(C)S(=O)(=O)c1ccccc1 59.3%
Cc1ccc(S(=O)(=O)N(C)C[C@@H]2OCCCC[C@@H](C)Oc3ccc(NS(=O)(=O)c4ccc(Cl)cc4)cc3C(=O)N([C@@H](C)CO)C[C@H]2C)cc1 82.3%
CO[C@H]1CN(C)C(=O)c2ccc(NC(=O)Nc3cc(F)ccc3F)cc2OC[C@H](C)N(C(=O)c2cnccn2)C[C@H]1C 9.41%
COc1ccc(S(=O)(=O)N2C[C@@H](O)COC[C@@H]3O[C@H](CC(=O)N(C)C)CC[C@H]32)cc1 -59.5%
OC[C@@H]1[C@@H](c2ccc(-c3cccc(F)c3)cc2)[C@@H]2CN(CCC(F)(F)F)CCCCN12 94%
COCC#Cc1ccc([C@@H]2[C@@H](CO)N3CCCCN(S(=O)(=O)c4ccccc4F)C[C@H]23)cc1 87.2%

inhibition, active:
CN(C)CC#Cc1ccc([C@@H]2[C@H](CO)N3CCCCN(C(=O)Nc4ccccc4F)C[C@@H]23)cc1 102%
C[C@H]1CN([C@@H](C)CO)C(=O)Cc2cc(NC(=O)Cc3ccccc3)ccc2O[C@@H]1CN(C)Cc1ccc(-c2ccccc2)cc1 107%
COc1cccc(S(=O)(=O)N2CCCCN3[C@H](CO)[C@H](c4ccc(-c5cccnc5)cc4)[C@H]3C2)c1 110%
COc1cccc(NC(=O)N(C)C[C@H]2Oc3cc(C#Cc4ccccc4)ccc3S(=O)(=O)N([C@@H](C)CO)C[C@@H]2C)c1 121%
C[C@H](CO)N1C[C@H](C)[C@@H](CN(C)S(=O)(=O)c2ccccc2)OCCCC[C@H](C)Oc2ccc(NC(=O)Nc3ccc(F)cc3)cc2C1=O 109%
CN1C(=O)c2cc(NC(=O)c3cnccn3)ccc2OC[C@H]2O[C@@H](CC(=O)N[C@@H]3CCN(Cc4ccccc4)C3)CC[C@H]21 107%
C[C@H]1CN([C@@H](C)CO)S(=O)(=O)c2ccc(C3=CCCCC3)cc2O[C@@H]1CN(C)Cc1ccccc1 117%
O=C(c1ccc(F)cc1)N1CCCCN2[C@@H](CO)[C@H](c3ccc(-c4ccc(F)cc4)cc3)[C@@H]2C1 104%
C[C@@H]1CN([C@H](C)CO)C(=O)c2cc(C#CCN(C)C)cnc2O[C@H]1CN(C)Cc1ccccc1F 101%
C[C@H]1CN([C@@H](C)CO)C(=O)c2cc(NC(=O)Nc3ccc4c(c3)OCO4)ccc2O[C@H]1CN(C)Cc1ccc(C(=O)Nc2ccccc2N)cc1 97.9%
COc1cccc(NC(=O)N(C)C[C@H]2Oc3cc(C#Cc4ccccc4)ccc3S(=O)(=O)N([C@H](C)CO)C[C@@H]2C)c1 94.1%
O=C(Nc1cc(F)ccc1F)N1CCCCN2[C@H](C1)[C@H](c1ccc(-c3ccccc3)cc1)[C@@H]2CO 99.2%

inhibition, inconclusive:
CCCC#Cc1ccc2c(c1)O[C@H](CN(C)C(=O)C1CCC1)[C@@H](C)CN([C@H](C)CO)S2(=O)=O 99%
C[C@H]1CCCCO[C@@H](CN(C)C(=O)Nc2ccc(C(F)(F)F)cc2)[C@@H](C)CN([C@@H](C)CO)C(=O)c2cc(NC(=O)Cc3ccccc3)ccc2O1 126%
C[C@@H]1CN([C@H](C)CO)C(=O)c2cc(NS(=O)(=O)c3ccc(Cl)cc3)ccc2O[C@@H]1CN(C)Cc1ccc(-c2ccccc2)cc1 92.7%
O=C(NCC(F)(F)F)[C@@H]1[C@@H](CO)[C@@H]2Cn3c(cccc3=O)[C@H]1N2C(=O)C1CC1 95.9%
C[C@H](CO)N1C[C@H](C)[C@@H](CN(C)Cc2ccc(Cl)c(Cl)c2)OCCCC[C@H](C)Oc2ccc(NS(=O)(=O)c3cccs3)cc2C1=O 125%
COc1ccc(S(=O)(=O)N(C)C[C@H]2OCCCC[C@@H](C)Oc3ccc(NC(=O)Nc4ccc(F)cc4)cc3C(=O)N([C@H](C)CO)C[C@H]2C)cc1 115%
CCCNC(=O)N(C)C[C@@H]1Oc2cc(C#Cc3cccc(F)c3)ccc2S(=O)(=O)N([C@H](C)CO)C[C@H]1C 96.2%
C[C@H]1CN([C@@H](C)CO)C(=O)c2cc(C#Cc3ccccc3)cnc2O[C@@H]1CN(C)S(=O)(=O)c1ccccc1F 85.1%
Cc1ccc(S(=O)(=O)Nc2ccc3c(c2)C(=O)N([C@@H](C)CO)C[C@@H](C)[C@H](CN(C)C(=O)Nc2cccc4ccccc24)OCCCC[C@H](C)O3)cc1 95.3%
O=C(Cc1ccccc1)N1CC[C@H]2[C@H](CO)Nc3ccc(-c4ccccc4)cc3[C@H]21 96.1%
N#C[C@@H]1[C@H](c2ccc(-c3ccccc3)cc2)[C@H](CO)N1C(=O)Cc1ccccc1 96.1%
COCC(=O)Nc1ccc2c(c1)C(=O)N(C)C[C@H](OC)[C@@H](C)CN(C(=O)c1ccccc1)[C@@H](C)CO2 68.9%
C[C@@H]1CCCCO[C@H](CN(C)S(=O)(=O)c2ccc(F)cc2)[C@H](C)CN([C@@H](C)CO)C(=O)c2cc(NC(=O)Nc3ccc(F)cc3)ccc2O1 95.6%
COc1cccc(S(=O)(=O)N2CCCCN3[C@H](CO)[C@@H](c4ccc(C#CC5CC5)cc4)[C@@H]3C2)c1 110%
Cc1ccc(S(=O)(=O)Nc2ccc3c(c2)C(=O)N([C@@H](C)CO)C[C@H](C)[C@@H](CN(C)Cc2ccc(-c4ccccc4)cc2)O3)cc1 96.8%
O=C(C1CCC1)N1CCCCN2[C@@H](CO)[C@H](c3ccc(-c4ccncc4)cc3)[C@@H]2C1 97.9%
